From PMC4336329 (PLoS ONE, 2015)
Screen size: about 310,000 compounds; about 2,200 (0.71%) showed an effect of 50% or more. The effect is printed as a negative number. The list shows a part of the results.

What follows are compounds tested against human ether-à-go-go-related gene (hERG) potassium channel (human, UniProt Q12809) (assay: primary screen, population patch clamp on CHO cells stably expressing hERG).
Chain of human ether-à-go-go-related gene (hERG) potassium channel (Q12809 whole entry, looked up): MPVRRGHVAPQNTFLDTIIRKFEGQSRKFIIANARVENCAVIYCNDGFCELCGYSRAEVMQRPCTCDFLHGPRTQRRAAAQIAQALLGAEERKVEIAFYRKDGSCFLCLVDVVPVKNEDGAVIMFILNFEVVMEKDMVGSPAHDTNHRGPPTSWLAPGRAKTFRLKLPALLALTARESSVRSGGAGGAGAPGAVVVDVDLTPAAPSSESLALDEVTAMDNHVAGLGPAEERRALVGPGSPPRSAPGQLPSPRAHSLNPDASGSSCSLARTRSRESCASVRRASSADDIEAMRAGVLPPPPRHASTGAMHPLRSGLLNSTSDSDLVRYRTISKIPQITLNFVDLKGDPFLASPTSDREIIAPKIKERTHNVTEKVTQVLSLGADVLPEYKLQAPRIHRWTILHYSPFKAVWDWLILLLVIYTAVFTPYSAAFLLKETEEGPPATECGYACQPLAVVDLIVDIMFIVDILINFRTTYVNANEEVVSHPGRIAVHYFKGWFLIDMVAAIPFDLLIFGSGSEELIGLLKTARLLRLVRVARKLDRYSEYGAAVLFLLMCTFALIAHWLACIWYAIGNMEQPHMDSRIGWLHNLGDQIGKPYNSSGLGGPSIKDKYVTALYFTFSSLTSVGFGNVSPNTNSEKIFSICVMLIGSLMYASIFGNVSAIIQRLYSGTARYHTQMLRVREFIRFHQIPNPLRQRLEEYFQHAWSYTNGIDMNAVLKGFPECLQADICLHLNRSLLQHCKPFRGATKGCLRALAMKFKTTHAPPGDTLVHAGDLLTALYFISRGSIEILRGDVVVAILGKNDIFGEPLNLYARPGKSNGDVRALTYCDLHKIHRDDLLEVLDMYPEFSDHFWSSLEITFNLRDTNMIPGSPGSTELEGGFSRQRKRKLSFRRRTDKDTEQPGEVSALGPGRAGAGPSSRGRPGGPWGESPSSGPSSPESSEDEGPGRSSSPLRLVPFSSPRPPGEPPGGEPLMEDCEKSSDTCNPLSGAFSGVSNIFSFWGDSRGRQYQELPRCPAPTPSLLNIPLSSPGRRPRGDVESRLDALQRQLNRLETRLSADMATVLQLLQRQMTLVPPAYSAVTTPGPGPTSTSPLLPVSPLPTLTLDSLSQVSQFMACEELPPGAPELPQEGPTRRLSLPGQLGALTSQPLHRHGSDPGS
With CCOc1ccccc1N1CCN(C2=C(NS(=O)(=O)c3cccs3)C(=O)c3ccccc3C2=O)CC1 the “hERG current change (%, negative = inhibition) at 1uM” value was -1.73%.
In the case of O=C(c1ccc(Cn2c(=O)[nH]c3ccccc3c2=O)cc1)N1CCN(c2ccccc2)CC1, the “hERG current change (%, negative = inhibition) at 1uM” value is reported as 10.5%.
For COc1cccc2sc(N(CCCN(C)C)C(=O)C(c3ccccc3)c3ccccc3)nc12.Cl, the “hERG current change (%, negative = inhibition) at 1uM” value was -11%.
With O=C(O)C(=O)O.O=[N+]([O-])c1ccc(S(=O)(=O)N2CCN(C3CCN(Cc4ccccc4)CC3)CC2)cc1 the “hERG current change (%, negative = inhibition) at 1uM” value was -78.1%.
For CCOc1cc(CN2CCN(CCc3ccccc3)C(CCO)C2)ccc1OC (stereo not drawn), the “hERG current change (%, negative = inhibition) at 1uM” value was -30.6%.
In the case of N/C(=N\S(=O)(=O)c1cccs1)c1ccccc1Cl, the “hERG current change (%, negative = inhibition) at 1uM” value is reported as 11.7%.
COc1cc(/C=C/c2ccc3cccc(O)c3n2)cc(Cl)c1OC was tested, and the “hERG current change (%, negative = inhibition) at 1uM” value was 21.6%.
With COc1cccc(CNC(=O)C2CCCN(S(=O)(=O)c3ccc4c(c3)C(C)(C)C(=O)N4C)C2)c1 (stereo not drawn) the “hERG current change (%, negative = inhibition) at 1uM” value was 13%.
In the case of COc1ccc(C2c3ccc(O)cc3Oc3ncn4nc(-c5ccccn5)nc4c32)cc1 (stereo not drawn), the “hERG current change (%, negative = inhibition) at 1uM” value is reported as 18.3%.
In the case of N#CCSc1nnc(-c2cnccn2)n1Cc1ccccc1, the “hERG current change (%, negative = inhibition) at 1uM” value is reported as 16.3%.
For CC(C)(C)c1ccc(C(=O)Nc2ccc(O)c3c(=O)cc(-c4ccccc4Cl)oc23)cc1, the “hERG current change (%, negative = inhibition) at 1uM” value was 3.83%.
With C/C(=N\NC(=S)NC1CCCCC1)c1ccccc1 the “hERG current change (%, negative = inhibition) at 1uM” value was -3.27%.
With O=C(O)CCCCN1C(=O)/C(=C\c2ccc(OCc3ccccc3)c(OCc3ccccc3)c2)SC1=S the “hERG current change (%, negative = inhibition) at 1uM” value was 11.8%.
COCCNC(=O)NC1(C(F)(F)F)Oc2ccc(Cl)cc2O1 (stereo not drawn) was tested, and the “hERG current change (%, negative = inhibition) at 1uM” value was -5.48%.
In the case of Cc1ccc(C(=O)NCCCNC(=O)c2cccnc2)cc1, the “hERG current change (%, negative = inhibition) at 1uM” value is reported as 11.9%.
For Cn1ncc2c1ncn1nc(CCc3ccccc3)nc21, the “hERG current change (%, negative = inhibition) at 1uM” value was 2.78%.
In the case of CN1CCN(C(=O)c2cccc(NS(=O)(=O)c3ccc(Br)cc3)c2)CC1.Cl, the “hERG current change (%, negative = inhibition) at 1uM” value is reported as 5.4%.
COc1ccc(C)cc1S(=O)(=O)N(C)CC(=O)N1CCN(c2ccccc2)CC1 was tested, and the “hERG current change (%, negative = inhibition) at 1uM” value was -1.57%.
For COc1ccc(CCNC(=O)c2cnc3ccccc3n2)cc1, the “hERG current change (%, negative = inhibition) at 1uM” value was 9.2%.
For Cc1ccc(C(=O)NC2CCCCCC2)cc1S(=O)(=O)N1CCOCC1, the “hERG current change (%, negative = inhibition) at 1uM” value was 12.4%.
For CCOC(=O)C1CCCN(C(=O)CN(c2ccc(OC)cc2)S(=O)(=O)c2c(C)noc2C)C1 (stereo not drawn), the “hERG current change (%, negative = inhibition) at 1uM” value was 12%.
For CC(NS(=O)(=O)c1ccc(OCC(=O)N2CCOCC2)c(Cl)c1)c1ccccc1 (stereo not drawn), the “hERG current change (%, negative = inhibition) at 1uM” value was 7.32%.
With O=C(CSc1nnnn1C1CCCCC1)NCc1cccc(C(=O)O)c1 the “hERG current change (%, negative = inhibition) at 1uM” value was 3.74%.
Cl.c1ccc(CSc2nnc(-c3cccnc3)o2)cc1 was tested, and the “hERG current change (%, negative = inhibition) at 1uM” value was -0.8%.
In the case of CN(Cc1ccccc1)C(=O)C1CCN(S(=O)(=O)c2cccc3nonc23)CC1, the “hERG current change (%, negative = inhibition) at 1uM” value is reported as 8.2%.
With COc1ccc2c(c1)C(=O)/C(=C/C=C/c1ccccc1)CC2 the “hERG current change (%, negative = inhibition) at 1uM” value was 18.3%.
COc1ccc(OCCCC(=O)NNC(=O)c2ccncc2)cc1 was tested, and the “hERG current change (%, negative = inhibition) at 1uM” value was 6.78%.
With O=S(=O)(c1cccs1)N1CCN(c2ccnc3cc(Cl)ccc23)CC1 the “hERG current change (%, negative = inhibition) at 1uM” value was -2.74%.
O=[N+]([O-])c1cc(S(=O)(=O)NCCN2CCOCC2)ccc1Sc1nnnn1-c1ccccc1 was tested, and the “hERG current change (%, negative = inhibition) at 1uM” value was -3.53%.
For CC(=O)CSc1nnc(-c2ccncc2)n1C, the “hERG current change (%, negative = inhibition) at 1uM” value was 22.5%.
With COc1ccc(OC)c(NC(=O)C(CCS(C)(=O)=O)NC(C)=O)c1 (stereo not drawn) the “hERG current change (%, negative = inhibition) at 1uM” value was 12.8%.
For Cc1ccc(-c2csc(NC(=O)Cc3ccc(F)cc3)n2)o1, the “hERG current change (%, negative = inhibition) at 1uM” value was 21.7%.
COc1cc(C(=O)O/N=C2\C=CC(=O)C=C2C)cc(OC)c1OC was tested, and the “hERG current change (%, negative = inhibition) at 1uM” value was -3.01%.
With COc1cc(C(c2nnnn2C2CCCC2)N2CCN(C)CC2)cc(OC)c1OC.Cl (stereo not drawn) the “hERG current change (%, negative = inhibition) at 1uM” value was 13.5%.
With Cc1ccc(N2CC(C(=O)Nc3ccccc3N3CCCC3)CC2=O)cc1 (stereo not drawn) the “hERG current change (%, negative = inhibition) at 1uM” value was 10.6%.
CCN(CC(=O)Nc1cc(Cl)ccc1C)C(=O)c1cc(S(=O)(=O)N2CCCCCC2)ccc1OC was tested, and the “hERG current change (%, negative = inhibition) at 1uM” value was 14.1%.
CC1CN(C(=O)c2cccc(S(=O)(=O)Nc3ccccc3Cl)c2)CC(C)O1 (stereo not drawn) was tested, and the “hERG current change (%, negative = inhibition) at 1uM” value was 8.3%.
For CCOC(=O)Cn1nc(C)n(-c2cccc(Cl)c2)c1=O, the “hERG current change (%, negative = inhibition) at 1uM” value was 13%.
In the case of COc1ccc(-c2oc3ccccc3c(=O)c2OC(=O)c2ccc(C)cc2)cc1, the “hERG current change (%, negative = inhibition) at 1uM” value is reported as 12.6%.
COc1ccc(-c2cc(C#N)nc(N3CCN(c4ccccc4)CC3)n2)cc1 was tested, and the “hERG current change (%, negative = inhibition) at 1uM” value was 11.2%.
For CCC(=O)N1CCN(c2ccc(NC(=O)c3cc4ccccc4o3)cc2)CC1, the “hERG current change (%, negative = inhibition) at 1uM” value was 1.12%.
COc1cccc(NC(=O)CCc2ccccc2)c1 was tested, and the “hERG current change (%, negative = inhibition) at 1uM” value was -2.39%.
For NC(=O)C1CCN(C(=O)CN(c2ccc3c(c2)OCCO3)S(=O)(=O)c2ccccc2)CC1, the “hERG current change (%, negative = inhibition) at 1uM” value was 1.49%.
In the case of COCc1cc(=O)[nH]c(SC)n1, the “hERG current change (%, negative = inhibition) at 1uM” value is reported as 15.5%.
CC(=O)NC(=S)NNC(=O)c1ccc(Br)cc1 was tested, and the “hERG current change (%, negative = inhibition) at 1uM” value was 13.3%.
In the case of CCC(C)NC(=O)c1ccc(NC(=O)C2=C(C)OCCS2)cc1 (stereo not drawn), the “hERG current change (%, negative = inhibition) at 1uM” value is reported as 18.4%.
With CCOc1cccc(/C=N/Nc2ccc(S(=O)(=O)N(CC)CC)cn2)c1O the “hERG current change (%, negative = inhibition) at 1uM” value was 18.9%.
With COc1ccc(N(C(=O)c2cccnc2)S(=O)(=O)c2cccs2)cc1 the “hERG current change (%, negative = inhibition) at 1uM” value was 13%.
With Cc1ccc2cc(CN(CCN3CCCC3)C(=O)Nc3ccc(F)cc3)c(=O)[nH]c2c1C the “hERG current change (%, negative = inhibition) at 1uM” value was -8.93%.
N#C/C(=C\c1cn(-c2ccccc2)nc1-c1ccccc1)S(=O)(=O)c1ccccc1 was tested, and the “hERG current change (%, negative = inhibition) at 1uM” value was 7.49%.
In the case of O=[S@]1Oc2ccccc2-c2ccccc21, the “hERG current change (%, negative = inhibition) at 1uM” value is reported as 13.4%.
With CC1CN(S(=O)(=O)c2cccc(C(=O)NCc3ccc4c(c3)OCO4)c2)CC(C)O1 (stereo not drawn) the “hERG current change (%, negative = inhibition) at 1uM” value was 3.8%.
CN(C)c1ccccc1C(=O)N1CCCC(Nc2ccc(F)cc2)C1 (stereo not drawn) was tested, and the “hERG current change (%, negative = inhibition) at 1uM” value was 9.52%.
CC(C)c1ccc(C(CC(=O)O)N2Cc3ccccc3C2=O)cc1 (stereo not drawn) was tested, and the “hERG current change (%, negative = inhibition) at 1uM” value was 1.35%.
